# Assay results reported in PubChem BioAssay AID485281 (National Center for Advancing Translational Sciences (NCATS), 2010).
# The whole screen tested about 350,000 compounds, of which about 260 (0.074%) were called active. This list was built around the results that the source calls inconclusive (neither active nor inactive); the mix of calls is not that of the screen. Calls come from the whole dose curve; as a rule, active = well fitted inhibition curve with a large enough effect; inconclusive = small, poorly fitted or top-dose-only effect; inactive = no such curve, though single readings can be large or run the other way. Potencies of inconclusive entries are doubtful fits and often do not repeat.
# Biological target: Ferritin light chain (Equus caballus) (UniProt P02791)
# Experiment: qHTS Assay for Identification of Novel General Anesthetics; note: nearly all actives have a fitted effect of over 20% in size
# Conditions: apoferritin/1-aminoanthracene competitive binding, fluorescence; series mostly up to 77.5 µM
# Outline: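 Probe: 1-aminoanthracene (50% saturated, PBS). Protein: horse-spleen apoferritin, 10 uM. Incubation: 10 min, room temperature. Detection: 380 nm excitation, 535 nm emission. Analysis: normalized response, four-parameter Hill.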
# Potency is the fitted concentration of half-maximal effect; tags give direction and shape of the fitted curve.
# Sequence of UniProt P02791 (P02791 whole entry, looked up): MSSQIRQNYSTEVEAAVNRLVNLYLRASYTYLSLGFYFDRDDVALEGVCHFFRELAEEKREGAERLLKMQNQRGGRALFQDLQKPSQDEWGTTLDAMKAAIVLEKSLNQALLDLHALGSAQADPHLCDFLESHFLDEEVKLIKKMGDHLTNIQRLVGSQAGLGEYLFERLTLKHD
row,Compound,Potency
1,Clc1ccc(CSc2cc3c(nn2)-c2ccccc2CC3)cc1,"inconclusive: 35.5 µM [inhibitor, partial curve]"
2,Cc1ccccc1CNC(=O)c1ccc(CSc2nc3cccnc3n2Cc2ccccc2)cc1,inactive
3,Cc1cccc(-n2c(Cc3ccccc3)nnc2SCc2ccc([N+](=O)[O-])cc2)c1,"inconclusive: 50.1 µM [inhibitor, single point]"
4,Cc1ccccc1[C@@H]1C(C#N)=C(N)S[C@H]1C(=O)c1ccccc1,"inconclusive: 15.8 µM [inhibitor, partial curve]"
5,O=C(CN1CCC(C(=O)c2ccc(F)cc2)CC1)Nc1ccccc1,"inconclusive: 25.1 µM [inhibitor, partial curve]"
6,Cc1ccc(NCc2ccccc2O)c(C)c1,"inconclusive: 8.91 µM [inhibitor, partial curve]"
7,O=C(CN1CCSc2ccccc21)N1CCCCC1,inactive
8,CN1C(=O)/C(=C/c2cccc(Cl)c2)Sc2ccc(C(=O)N3CCCC3)cc21,"inconclusive: 20 µM [inhibitor, partial curve]"
9,O=S(=O)(NC1CCCC1)c1ccc(Br)s1,"inconclusive: 44.7 µM [inhibitor, partial curve]"
10,Cc1ccc(NC(=O)Cc2ccsc2)cc1Cl,"inconclusive: 11.2 µM [inhibitor, full curve, poor fit]"
11,O=C(Cn1c(=O)n(Cc2ccco2)c(=O)c2ccccc21)Nc1cccc(Cl)c1,inactive
12,Cc1ccc(-c2nc(C(=O)NCC3CCCO3)cc3c2[nH]c2ccccc23)cc1 (centres undefined),inactive
13,COc1cc2c(cc1OC)C1C(=O)c3c(O)cc4c(c3OC1CO2)C=CC(C)(C)O4 (centres undefined),"inconclusive: 10 µM [inhibitor, partial curve]"
14,CC1=NC(=O)C(N=Nc2cccc(O)c2)N1c1ccccc1 (centres undefined),"inconclusive: 35.5 µM [inhibitor, partial curve]"
15,COc1cc(C(=S)N2CCN(c3cccc(Cl)c3)CC2)ccc1O,inactive
16,COc1ccc(CCNC(=O)c2nc(SCc3ccc(C)cc3)ncc2Cl)cc1OC,"inconclusive: 35.5 µM [inhibitor, partial curve]"
17,O=C(O)c1cc(Br)ccn1,inactive
18,N/C(=N\O)c1ccc([N+](=O)[O-])s1,inactive
19,CCCCn1nnc(NC(=O)COc2ccc(Cl)c(C)c2)n1,"inconclusive: 17.8 µM [inhibitor, partial curve]"
20,CCC(=O)N1CCc2cc(CNS(=O)(=O)c3ccc(NC(=O)CC(C)C)cc3)ccc21,"inconclusive: 4.47 µM [inhibitor, single point]"
21,COc1ccc(S(=O)(=O)Cc2ccc(C(=O)N3CC(C)CC(C)C3)o2)cc1 (centres undefined),"inconclusive: 31.6 µM [inhibitor, single point]"
22,Fc1ccccc1-c1nc2ccccc2[nH]1,inactive
23,Cc1cc(/C=C2/NC(=S)NC2=O)c(C)n1-c1cccnc1,inactive

row,Compound,Potency
1,CC(C)(C)c1ccc(C2=NC(C)(C)N(CC(=O)Nc3ccc(F)c(F)c3)C2=O)cc1,"inconclusive: 10 µM [inhibitor, partial curve]"
2,O=C(c1cc(COc2ccc(F)cc2Cl)on1)N1C[C@H]2CC[C@H]1C2,"inconclusive: 31.6 µM [inhibitor, single point]"
3,COc1ccc(N(CC(=O)Nc2ccccc2F)S(=O)(=O)c2ccc(C)c([N+](=O)[O-])c2)cc1,"inconclusive: 5.62 µM [inhibitor, partial curve]"
4,CCC(=O)Nc1ccccc1C(=O)OCC(=O)c1ccc2ccccc2c1,"inconclusive: 28.2 µM [inhibitor, single point]"
5,C=C1CCC[C@]2(C)C[C@H]3OC(=O)C(CN4CCCCC4CO)[C@H]3CC12 (some centres undefined),"inconclusive: 50.1 µM [inhibitor, single point]"
6,C=CCn1c(COc2cccc3cccnc23)nnc1SCC(=O)O,inactive
7,CC(=O)NC12CC3CC(C1)CC(C(=O)OCC(=O)Nc1ncc(Cl)c(C)c1Cl)(C3)C2,"inconclusive: 31.6 µM [inhibitor, partial curve]"
8,O=C(COC(=O)c1ccccc1NS(=O)(=O)c1cccs1)NCC12CC3CC(CC(C3)C1)C2,inactive
9,COCCN1C(=O)/C(=C/c2cc3c(cc2Br)OCO3)NC1=S,inactive
10,Cc1nc(CS(=O)(=O)c2ccc(Cl)cc2)cc(Sc2ccc(Cl)cc2)n1,inactive
11,CCC12CN(C(=O)c3ccc(OC)cc3)CC(CC)(CN(C(=O)c3ccc(OC)cc3)C1)C2=O,inactive
12,C=CCN1C(=O)/C(=C/c2ccc(OC(C)=O)c(OCC)c2[N+](=O)[O-])SC1=S,"inconclusive: 20 µM [inhibitor, partial curve]"
13,Cc1ccccc1NC1=NC(=S)N(CC(N)=O)C12CCOC(C)(C)C2 (centres undefined),inactive
14,CCCc1nc(SCc2ccc(Cl)cc2Cl)n[nH]1,"inconclusive: 12.6 µM [inhibitor, partial curve]"
15,CCOC(=O)c1nc2nc(-c3cccs3)cc(C(F)(F)F)n2n1,inactive
16,Cc1nc(Nc2ccc(S(N)(=O)=O)cc2)sc1-c1ccccc1,inactive
17,CCC(Nc1ncnc2ccc(-c3c(C)noc3C)cc12)c1ccccc1 (centres undefined),inactive
18,Cc1nc2sc(C(c3ccc(Cl)cc3)N3CCN(c4ccccc4F)CC3)c(O)n2n1 (centres undefined),"inconclusive: 35.5 µM [inhibitor, partial curve]"
19,COc1cccc(CN2CC(C(=O)N3CCN(c4ccc(Cl)cc4)CC3)CCC2=O)c1 (centres undefined),"inconclusive: 12.6 µM [inhibitor, partial curve]"
20,Cc1cc(OCCOCCN(C)C)ccc1Cl,inactive
21,C=CCn1c(C)cc(C(=O)Cn2nc(C(=O)O)c3ccccc3c2=O)c1C,"inconclusive: 25.1 µM [inhibitor, partial curve]"
22,COC(=O)C(CC(C)C)N1CCC(=O)c2ccccc2S1(=O)=O (centres undefined),inactive
23,Cc1oc(=O)c(NC(=O)c2cccc(Cl)c2)cc1C(=O)c1ccccc1,inactive

row,Compound,Potency
1,CN(C)S(=O)(=O)c1cccn1-c1ncc(C(F)(F)F)cc1Cl,"inconclusive: 35.5 µM [inhibitor, single point]"
2,COCC1CCN(C(=O)c2cc(COc3ccc(-n4cncn4)cc3)on2)C1 (centres undefined),"inconclusive: 39.8 µM [inhibitor, single point]"
3,Cc1c(Cl)cccc1NC(=O)C1CCCN(c2nnc(-n3c(C)ccc3C)s2)C1 (centres undefined),inactive
4,Cc1cc(NC(=O)C2CC2)ncc1NC(=O)C12CC3CC(CC(C3)C1)C2,"inconclusive: 28.2 µM [inhibitor, partial curve]"
5,Cc1ccc(CSC2=Nc3ccccc3C3=NC(CCC(=O)NCc4cccs4)C(=O)N23)cc1 (centres undefined),"inconclusive: 0.891 µM [inhibitor, full curve]"
6,COc1ccc(NC(=O)CSc2nc3cccnc3n2C)cc1,"inconclusive: 0.708 µM [inhibitor, full curve, poor fit]"
7,O=C(CN1CCN(S(=O)(=O)c2ccccc2)CC1)Nc1cccc(C(F)(F)F)c1,"inconclusive: 35.5 µM [inhibitor, partial curve]"
8,C#CC1CN(Cc2ccccc2)CC(C#C)N1C (centres undefined),"inconclusive: 35.5 µM [inhibitor, partial curve]"
9,O=c1oc2c(-c3cccc(F)c3)cc(O)cc2s1,"inconclusive: 31.6 µM [inhibitor, single point]"
10,CC1CCCN(c2nc3c(S(=O)(=O)c4ccc(C(C)C)cc4)nnn3c3ccsc23)C1 (centres undefined),"inconclusive: 1.78 µM [inhibitor, full curve, poor fit]"
11,CCOc1cc(C(=S)N2CCCCC2)ccc1OS(=O)(=O)c1ccc(Cl)cc1,"inconclusive: 20 µM [inhibitor, partial curve]"
12,CSCC(=O)N1CCCC(CO)(Cc2ccccc2C)C1 (centres undefined),"inconclusive: 22.4 µM [inhibitor, partial curve]"
13,CCOC(=O)N1CCC(NC(=O)c2ccc3c(c2)N(Cc2cc(C)ccc2C)C(=O)c2ccccc2S3(=O)=O)CC1,"inconclusive: 4.47 µM [inhibitor, partial curve]"
14,CCOC(=O)c1ccc(-n2c(CN(CC)CC)nc3ccc([N+](=O)[O-])cc3c2=O)cc1,"inconclusive: 22.4 µM [inhibitor, single point]"
15,O=C1C2CC=CCC2C(=O)N1c1ccc(NCCc2ccc(Cl)cc2)c([N+](=O)[O-])c1 (centres undefined),"inconclusive: 10 µM [inhibitor, partial curve]"
16,O=C(C1=C(O)C(=O)N(CCN2CCOCC2)C1c1ccc(Br)cc1)c1cc2ccccc2o1 (centres undefined),"inconclusive: 39.8 µM [inhibitor, single point]"
17,CCn1cc([N+](=O)[O-])c(C(=O)Nc2nc(-c3ccc(C)cc3)c(C)s2)n1,"inconclusive: 39.8 µM [inhibitor, single point]"
18,COc1ccccc1NC(=O)Cn1c(=O)n(Cc2cccs2)c(=O)c2cccnc21,"inconclusive: 3.98 µM [inhibitor, full curve]"
19,CCCCNC(=O)c1onc(CSc2ccc(C(C)C)cc2)c1C(=O)O,"inconclusive: 39.8 µM [inhibitor, partial curve]"
20,COc1ccc(N2CCN(c3cc(C)c4ccc(C)cc4n3)CC2)cc1,inactive
21,O=c1[nH]c(CN2CCN(c3ccc([N+](=O)[O-])cc3)CC2)nc2ccsc12,"inconclusive: 35.5 µM [inhibitor, partial curve]"
22,COc1ccc(Cl)cc1NC(=O)CN(C)C(C)C(=O)NCC1CCCCC1 (centres undefined),"inconclusive: 31.6 µM [inhibitor, partial curve]"
23,Cc1ccc(C)c(NC(=O)c2nc(S(C)(=O)=O)ncc2N(Cc2ccc(C(C)(C)C)cc2)Cc2ccco2)c1,"inconclusive: 4.47 µM [inhibitor, partial curve]"
